According to the supplement of paper PMC9446081:
In all, about 39,000 compounds went through this assay and about 220 (0.56%) showed activity. Some of the results follow.

test system: Escherichia coli K-12 BW25113; experiment: relative growth (OD600 normalised to plate interquartile mean) (fraction); higher = less growth inhibition, active = 0.2 or less; settings: 50 µM; LB; incubation time: overnight (16-24 h)
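Also: static incubation at 37 °C against the wild-type strain, values averaged over two biological replicates.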

Structure (SMILES)	relative growth
O=C(C[C@H]1C=C[C@H](NS(=O)(=O)c2ccc(F)cc2)[C@@H](CO)O1)NCCN1CCCCC1	inactive: 1
CO[C@H]1CN(C)C(=O)c2cc(NS(C)(=O)=O)ccc2OC[C@H](C)N(C(=O)CN(C)C)C[C@@H]1C	inactive: 0.958
O=C(O)Cn1cc(Br)c(=O)[nH]c1=O	inactive: 1.05
COCC(=O)Nc1ccc2c(c1)C(=O)N(C)C[C@H](OC)[C@H](C)CN(C(=O)c1ccccc1F)[C@@H](C)CO2	inactive: 0.997
COc1ccc(S(=O)(=O)Nc2ccc3c(c2)C(=O)N([C@H](C)CO)C[C@H](C)[C@H](CN(C)C(=O)Nc2ccc(F)cc2)OCCCC[C@@H](C)O3)cc1	inactive: 1.01
COc1ccc(NC(=O)Nc2ccc3c(c2)C(=O)N([C@H](C)CO)C[C@H](C)[C@@H](CN(C)CC2CCCCC2)OCCCC[C@@H](C)O3)cc1	inactive: 0.981
CN1C(=O)c2cc(NC(=O)c3cccs3)ccc2OC[C@@H]2O[C@@H](CC(=O)NCC(F)(F)F)CC[C@H]21	inactive: 1.01
Cc1ccccc1S(=O)(=O)N1C[C@@H](O)COC[C@@H]2O[C@H](CC(=O)NCCc3ccncc3)CC[C@H]21	inactive: 0.991
C[C@@H]1CN([C@@H](C)CO)C(=O)c2cc(NC(=O)Nc3ccc4c(c3)OCO4)ccc2O[C@@H](C)CCCCO[C@@H]1CN(C)S(=O)(=O)c1ccc(Cl)cc1	inactive: 1.05
O=C(N[C@H]1C=C[C@@H](CC(=O)N2CCOCC2)O[C@H]1CO)c1ccc2c(c1)OCO2	inactive: 1.01
COCC(=O)Nc1ccc2c(c1)C(=O)N(C)C[C@@H](OC)[C@H](C)CN(Cc1cccc(F)c1)[C@H](C)CO2	inactive: 1.02
COc1ccc(S(=O)(=O)Nc2cccc3c2O[C@@H](CN(C)C(=O)Nc2cccc4ccccc24)[C@H](C)CN([C@H](C)CO)C3=O)cc1	inactive: 0.995
O=C(Nc1cccc2cccnc12)[C@@H]1[C@H](c2ccc(-c3ccccc3)cc2)CC(=O)N1C(=O)OCc1ccccc1	inactive: 1.05
CCOC(=O)[C@@H](N)Cc1ccc(O)c(O)c1	inactive: 0.983
C[C@H](CO)N1C[C@H](C)[C@H](CN(C)C(=O)Nc2cccc(Oc3ccccn3)c2)OCc2cnnn2CCCC1=O	inactive: 0.989
C[C@@H]1CN([C@@H](C)CO)C(=O)Cc2cc(NC(=O)CCCN(C)C)ccc2O[C@@H]1CN(C)S(=O)(=O)c1ccccc1	inactive: 0.988
C[C@H]1CN([C@@H](C)CO)C(=O)Cc2cc(NC(=O)CCCCCC(=O)Nc3ccccc3N)ccc2O[C@@H]1CN(C)Cc1ccc(Cl)c(Cl)c1	inactive: 0.982
CC(=O)N(C)C[C@H]1Oc2ncc(C#C[C@@H](C)O)cc2C(=O)N([C@H](C)CO)C[C@@H]1C	inactive: 0.996
C[C@H]1CN([C@@H](C)CO)C(=O)c2cccc(NS(=O)(=O)c3ccccc3)c2O[C@H]1CN(C)S(=O)(=O)c1cccs1	inactive: 0.977
C[C@H](CO)N1C[C@H](C)[C@@H](CN(C)Cc2ccc(Cl)c(Cl)c2)Oc2c(NS(=O)(=O)c3ccc(Cl)cc3)cccc2C1=O	inactive: 1

Structure (SMILES)	relative growth
CC(C)NC(=O)Nc1ccc2c(c1)C(=O)N([C@H](C)CO)C[C@H](C)[C@@H](CN(C)C(=O)Nc1ccc(C(F)(F)F)cc1)OCCCC[C@@H](C)O2	inactive: 1
CC(C)[C@@H](O)C[C@@H](C)O[C@@H]1O[C@H](CO[C@@H]2OC[C@](O)(CO)[C@H]2O)[C@@H](O)[C@H](O)[C@H]1O	inactive: 0.911
Cc1ccc(S(=O)(=O)Nc2ccc3c(c2)CC(=O)N([C@@H](C)CO)C[C@H](C)[C@@H](CN(C)Cc2ccc(Oc4ccccc4)cc2)O3)cc1	inactive: 1.05
C[C@@H]1Cn2nncc2CO1	inactive: 1.01
COCC(=O)Nc1ccc2c(c1)OC[C@H](C)N(Cc1cccc(F)c1)C[C@H](C)[C@H](OC)CN(C)C2=O	inactive: 0.987
C[C@@H]1CN([C@@H](C)CO)C(=O)c2cc(NC(=O)C3CCCCC3)ccc2O[C@@H](C)CCCCO[C@H]1CN(C)Cc1ccncc1	inactive: 0.992
CCc1nc2ccc(C(=O)Nc3cc(-c4ccccc4)ccc3OC)cn2c1N(C)C(=O)Cc1ccccc1	inactive: 1.04
Cc1ccccc1S(=O)(=O)N1C[C@H](O)COC[C@@H]2O[C@H](CC(=O)NCc3ccccc3Cl)CC[C@H]21	inactive: 1.01
C[N+](C)(C)CCCC[C@@H]1NC(=O)[C@H]2C[C@@H](C(=O)NCCCCCCNC(=O)CS)[C@@H](c3ccc(O)cc3)N2C1=O	inactive: 0.955
CN(C)c1nc(NCCO)c2cnn(C)c2n1	inactive: 0.994
CCCNC(=O)C[C@H]1CC[C@H]2[C@@H](COC[C@@H](O)CN2S(=O)(=O)c2ccc(Oc3ccccc3)cc2)O1	inactive: 0.997
Cc1noc(C)c1NC(=O)Nc1ccc2c(c1)CC(=O)N([C@@H](C)CO)C[C@@H](C)[C@@H](CN(C)S(=O)(=O)c1ccccc1)O2	inactive: 0.995
C[C@@H]1CCCCO[C@H](CN(C)C(=O)C2CCCCC2)[C@@H](C)CN([C@H](C)CO)C(=O)c2cc(NC(=O)Cc3ccccc3)ccc2O1	inactive: 1.03
Cc1noc(C)c1NC(=O)N(C)C[C@@H]1Oc2ccc(NS(C)(=O)=O)cc2C(=O)N([C@H](C)CO)C[C@H]1C	inactive: 1.02
Cc1noc(C)c1NC(=O)N(C)C[C@H]1OCCCC[C@@H](C)Oc2ccc(NS(=O)(=O)c3cccs3)cc2C(=O)N([C@H](C)CO)C[C@@H]1C	inactive: 0.982
COc1ccc2cc1/C=C\NC(=O)[C@H](Cc1ccccc1)NC(=O)[C@@H]1[C@H](CCN1C(=O)[C@@H](NC(=O)[C@@H](C)N(C)C)C(C)C)O2	inactive: 1
C[C@@H]1CN([C@H](C)CO)C(=O)c2cc(NC(=O)C3CCCCC3)ccc2O[C@H]1CN(C)Cc1ccc(-c2ccccc2)cc1	inactive: 1.05
C[C@@H]1CCCCO[C@H](CN(C)C(=O)Nc2ccccc2)[C@H](C)CN([C@@H](C)CO)C(=O)c2cc(NS(=O)(=O)c3ccc(F)cc3)ccc2O1	inactive: 1.03
C=CCN1C(=O)[C@@]2(O[C@@H](CCn3cc([C@H](O)c4ccccc4)nn3)[C@H]([Si](C)(C)c3ccc(OC)cc3)[C@H]2C)c2ccccc21	inactive: 1.03
C[C@H]1CN([C@@H](C)CO)S(=O)(=O)c2ccc(-c3cccnc3)cc2O[C@@H]1CN(C)CC1CCOCC1	inactive: 1.02

Structure (SMILES)	relative growth
COc1ccc(NC(=O)Nc2cccc3c2O[C@H](CN(C)Cc2ccc(C(F)(F)F)cc2)[C@H](C)CN([C@H](C)CO)C3=O)cc1	inactive: 1.02
O=C(C[C@@H]1C=C[C@@H](NC(=O)c2cnccn2)[C@@H](CO)O1)NCc1ccccc1F	inactive: 0.988
C[C@@H]1CN([C@H](C)CO)C(=O)Cc2cc(NC(=O)Cc3ccccc3)ccc2O[C@H]1CN(C)Cc1ccc(C(F)(F)F)cc1	inactive: 1.08
CN(C)CC(=O)N1[C@@H](CO)[C@@H](c2ccc(C3=CCCC3)cc2)C12CN(S(=O)(=O)Cc1ccccc1)C2	inactive: 1
C[C@H]1CN([C@@H](C)CO)C(=O)Cc2cc(NC(=O)Nc3ccc(C(F)(F)F)cc3)ccc2O[C@@H]1CN(C)Cc1ccc(C(=O)O)cc1	inactive: 0.989
CC(=O)OCC[C@H](C)CCC=C(C)C	inactive: 0.982
COC1=C(OC)C(=O)C(CCCCCCCCCC[P+](c2ccccc2)(c2ccccc2)c2ccccc2)=C(C)C1=O	active: 0.0727
C[C@H]1CN([C@@H](C)CO)C(=O)Cc2cc(NC(=O)Cc3ccccc3)ccc2O[C@H]1CN(C)C(=O)Nc1cccc2ccccc12	inactive: 1
Cc1cn([C@H]2C=C[C@@H](CO)O2)c(=O)[nH]c1=O	inactive: 0.685
Cc1ccc(S(=O)(=O)N(C)C[C@@H]2Oc3ccc(NC(=O)C4CC4)cc3C(=O)N([C@H](C)CO)C[C@H]2C)cc1	inactive: 1.02
CCCN1C[C@H](C)[C@@H](OC)CN(C)C(=O)c2cc(NS(=O)(=O)c3cn(C)cn3)ccc2OC[C@H]1C	inactive: 1.04
Cc1ccc(S(=O)(=O)Nc2cccc3c2O[C@@H](CN(C)S(=O)(=O)c2ccc(F)cc2)[C@H](C)CN([C@H](C)CO)C3=O)cc1	inactive: 1.01
C[C@@H]1CN([C@H](C)CO)C(=O)Cc2cc(NC(=O)Cn3cnnn3)ccc2O[C@@H]1CN(C)Cc1ccc(C(F)(F)F)cc1	inactive: 1.02
C[C@@H]1CN([C@@H](C)CO)C(=O)c2cccc(NC(=O)Nc3ccc(C(F)(F)F)cc3)c2O[C@H]1CN(C)Cc1ccc(C(F)(F)F)cc1	inactive: 0.977
NC(=S)Nc1ccc(S(N)(=O)=O)cc1	inactive: 1.04
O=C(C[C@@H]1CC[C@H]2[C@@H](COC[C@H](O)CN2C(=O)Nc2ccc(Cl)c(Cl)c2)O1)NCc1ccncc1	inactive: 0.921
COc1ccc(S(=O)(=O)Nc2ccc3c(c2)C(=O)N([C@@H](C)CO)C[C@H](C)[C@@H](CN(C)C(=O)Nc2cccc4ccccc24)OCCCC[C@@H](C)O3)cc1	inactive: 1.02
C[C@H]1CN([C@@H](C)CO)C(=O)c2cc(C#CCN(C)C)cnc2O[C@H]1CN(C)Cc1ccc(C(=O)O)cc1	inactive: 0.973
C[C@H]1CN([C@@H](C)CO)C(=O)c2cc(-c3ccc(C(=O)N(C)C)cc3)cnc2O[C@@H]1CN(C)C(=O)c1ccncc1	inactive: 0.987
C[C@H](CO)N1C[C@H](C)[C@@H](CN(C)C(=O)CCC(F)(F)F)OCCCC[C@H](C)Oc2ccc(NC(=O)Nc3ccccc3)cc2C1=O	inactive: 1.02
